Data: PubChem BioAssay AID1468 (National Center for Advancing Translational Sciences (NCATS), 2008)
Hit rate of the full screen: of about 280,000 compounds, about 1,100 (0.39%) were called active. This list was built around the results that the source calls inconclusive (neither active nor inactive); the mix of calls is not that of the screen. The call rests on the fitted dose curve; in most records, active means well fitted inhibition curve with a large enough effect; inconclusive means small, poorly fitted or top-dose-only effect, or effect the other way; inactive means flat fitted curve, though single readings scatter. Potencies of inconclusive entries are left out as doubtful fits.

Molecular target: Microtubule-associated protein tau (Homo sapiens) (UniProt P10636)
Experiment: qHTS for Inhibitors of Tau Fibril Formation, Fluorescence Polarization; further: nearly all actives have a fitted effect of over 55% in size
Conditions: K18 P301L tau heparin fibrillization, Alexa594 FP, 6 h; series mostly up to 57.7 µM; activity, negative = inhibition: at the top concentration
Summary of the method: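 Recombinant K18 P301L […], labeled with Alexa 594 at 0.24 uM over 15 uM unlabeled; heparin inducer 20 uM final; 37 C, 6 hr; FP endpoint.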
On the % scale 0 is the no-effect control and ±100 the full control effect; potency means the concentration at half of the fitted maximal effect; tags describe the fitted curve by direction and shape.

Chain of UniProt P10636 (P10636 whole entry, looked up): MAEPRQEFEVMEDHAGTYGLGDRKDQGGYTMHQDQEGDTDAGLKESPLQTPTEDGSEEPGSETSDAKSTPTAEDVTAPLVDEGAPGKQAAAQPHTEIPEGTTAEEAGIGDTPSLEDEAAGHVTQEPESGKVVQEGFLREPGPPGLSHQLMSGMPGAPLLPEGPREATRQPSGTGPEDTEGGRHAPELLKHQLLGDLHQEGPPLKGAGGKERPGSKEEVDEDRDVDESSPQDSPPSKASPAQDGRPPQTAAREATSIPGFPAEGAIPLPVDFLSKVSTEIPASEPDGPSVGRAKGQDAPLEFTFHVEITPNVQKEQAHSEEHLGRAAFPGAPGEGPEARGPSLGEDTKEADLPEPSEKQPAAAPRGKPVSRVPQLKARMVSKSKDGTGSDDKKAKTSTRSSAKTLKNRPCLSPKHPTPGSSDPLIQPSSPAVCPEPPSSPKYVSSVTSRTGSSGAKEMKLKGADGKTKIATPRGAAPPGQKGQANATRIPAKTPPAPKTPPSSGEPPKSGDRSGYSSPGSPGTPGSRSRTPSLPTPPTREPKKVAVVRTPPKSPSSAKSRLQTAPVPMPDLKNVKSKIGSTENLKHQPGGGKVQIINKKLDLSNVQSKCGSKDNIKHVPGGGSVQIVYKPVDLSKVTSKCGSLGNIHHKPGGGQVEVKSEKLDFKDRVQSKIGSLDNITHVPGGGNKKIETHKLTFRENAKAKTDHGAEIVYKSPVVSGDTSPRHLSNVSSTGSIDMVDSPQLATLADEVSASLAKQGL

| Structure (SMILES) | Potency | activity, negative = inhibition |
| --- | --- | --- |
| CN1C(=O)/C(=C/c2cccc(Cl)c2)Sc2ccc(C(=O)NCc3cccnc3)cc21 | inconclusive [inhibitor, full curve] | – |
| CC(=O)Nc1ccc(S(=O)(=O)/N=C2\C(=O)c3ccccc3C([O-])=C2n2cc[n+](-c3ccccn3)c2)cc1 | inconclusive [inhibitor, partial curve] | – |
| Cc1sc(NC(=O)c2ccco2)c(C(c2ccc(F)cc2)N2CCN(C)CC2)c1C (stereo unspecified) | inconclusive [activator, partial curve] | – |
| COc1cc(OC)cc(C(=O)Nc2ccc3nc(N4CCC(C)CC4)cc(C)c3c2)c1 | inconclusive [activator, partial curve] | – |
| Cc1ccc2oc(=O)n(CCNC(=O)Nc3ccccc3Cl)c2c1 | – | inactive: 0.13% |
| CCn1c(N)c(C(=O)NCCCOC)sc1=S | inconclusive [inhibitor, single point] | – |
| N#CCCn1cc(/C=C/C(=O)O)c(-c2ccc(F)cc2)n1 | inconclusive [inhibitor, single point] | – |
| O=C(Cn1nnc2sc3c(c2c1=O)CCCC3)Nc1ccc(F)c(Cl)c1 | inconclusive [inhibitor, partial curve] | – |
| CCCCNC(=S)N1CCN(Cc2ccc3c(c2)OCO3)CC1 | – | inactive: 7.56% |
| Cc1cc(-c2ccccc2)n2ncc(-c3ccccc3)c2n1 | inconclusive [inhibitor, partial curve, poor fit] | – |
| CCN(CC)S(=O)(=O)c1ccc(S(=O)(=O)Nc2ccc3c(c2)oc2ccccc23)cc1 | inconclusive [inhibitor, partial curve] | – |
| CCCS(=O)(=O)NCCc1csc2nc(-c3ccc(OC)cc3)nn12 | – | inactive: -10.1% |
| O=C(CSc1ccc(Cl)cc1)Nc1cccc(-c2nc3ccccc3[nH]2)c1 | inconclusive [inhibitor, single point] | – |
| O=C1/C(=C/Nc2ccc3c(c2)OCO3)CCc2ccccc21 | inconclusive [inhibitor, partial curve] | – |
| COc1ccc(-c2noc(COc3ccc4c(c3)OCO4)n2)cc1 | inconclusive [inhibitor, full curve, poor fit] | – |
| O=C(COc1ccccc1)NCC(=O)N/N=C/C=C/c1ccccc1 | inconclusive [inhibitor, single point] | – |
| COc1ccc(S(=O)(=O)N2CCOCC2)cc1NC(=O)c1ccccc1-c1ccc(C(F)(F)F)cc1 | – | inactive: 3.62% |
| Nc1ccc(-c2nc3cc(N)ccc3s2)cc1 | – | inactive: -1.15% |
| CCOc1ccc(S(=O)(=O)Nc2ccc3c(c2)c(C(C)=O)c(C)n3S(=O)(=O)c2ccc(OCC)cc2)cc1 | inconclusive [inhibitor, single point] | – |
| O=C(CSCc1cccc(CSCC(=O)Nc2ccc3ccccc3c2)n1)Nc1ccc2ccccc2c1 | inconclusive [inhibitor, partial curve] | – |
| CC(N)=Nc1ccc([N+](=O)[O-])cc1 | – | inactive: -1.59% |

| Structure (SMILES) | Potency | activity, negative = inhibition |
| --- | --- | --- |
| CC(C)c1ccc(NS(=O)(=O)c2ccc3[nH]c(=O)ccc3c2)cc1 | inconclusive [inhibitor, single point] | – |
| COc1cccc(Nc2ncnc3c2cnn3-c2cccc(C)c2)c1 | inconclusive [inhibitor, partial curve] | – |
| O=S(=O)(NC1=NCCCCC1)c1ccc2sc(NS(=O)(=O)c3ccc4ccccc4c3)nc2c1 | inconclusive [inhibitor, partial curve] | – |
| CCC(=O)c1ccc(N2CCN(C(=O)Cc3ccccc3)CC2)c(F)c1 | – | inactive: -2.18% |
| S=C(NC1CCCCC1)c1ccc2c(c1)OCO2 | inconclusive [inhibitor, single point] | – |
| COc1ccc(C2NC(=O)C(C#N)=C(S)N2c2ccc(C)cc2)cc1OC (stereo unspecified) | inconclusive [inhibitor, single point] | – |
| CC1CCN(S(=O)(=O)c2cc(C(=O)NCc3ccc(F)cc3)n(C)c2)CC1 | – | inactive: 1.41% |
| Cc1ccccc1OCc1nnc(SCC(=O)Nc2ccc3nc(SCC(=O)Nc4ccccc4)sc3c2)n1C | inconclusive [inhibitor, partial curve] | – |
| CC(C)n1c(=S)[nH]c2c1c(=O)[nH]c(=O)n2C | inconclusive [inhibitor, single point] | – |
| COc1cc(C(=S)N2CCOCC2)ccc1OS(=O)(=O)c1ccccc1[N+](=O)[O-] | – | inactive: -2.48% |
| CCCCC/C=C\C\C=C/C=C/C=C/[C@@H](SCC(N)C(=O)NCC(=O)O)[C@@H](O)CCCC(=O)O (stereo partly specified) | inconclusive [inhibitor, single point] | – |
| CSc1nc(Oc2ccccc2)c2sccc2n1 | inconclusive [inhibitor, partial curve, poor fit] | – |
| Cc1cccc(C(=O)OCC(=O)Nc2sc3c(c2C#N)CCC3)c1 | inconclusive [activator, single point] | – |
| COc1cc(NC(=O)Cn2c(=O)n(C(C)C)c(=O)c3oc4ccccc4c32)cc(OC)c1 | inconclusive [inhibitor, partial curve, poor fit] | – |
| CCOc1ccc(C(c2c(O)cc(C)n(Cc3ccco3)c2=O)N2CCN(c3ccccc3)CC2)cc1 (stereo unspecified) | – | inactive: -15.7% |
| O=C(Nc1ccc(Cl)c(Cl)c1)c1ccc(Cn2c(=O)[nH]c3ccsc3c2=O)cc1 | inconclusive [inhibitor, partial curve] | – |
| CCOC(=O)CNC(=O)O[C@@H]1C(=O)c2cc(Br)ccc2O[C@H]1c1ccc2c(c1)OCO2 | – | inactive: 6% |
| COc1ccc(/C=C2\SC(=S)N(CCCC(=O)NNC(=O)c3ccccc3O)C2=O)cc1 | inconclusive [inhibitor, partial curve, poor fit] | – |
| COc1ccccc1NC(=O)c1ccc(NC(=O)COC(=O)C2(C)CC2(Cl)Cl)cc1 (stereo unspecified) | inconclusive [inhibitor, partial curve] | – |
| N#CCC(CNc1ncc(C(F)(F)F)cc1Cl)OC(=O)c1ccc(Cl)cc1Cl (stereo unspecified) | inconclusive [inhibitor, partial curve, poor fit] | – |
